# PMC9574860, “Chemical Toolkit for PARK7: Potent, Selective, and High-Throughput” (Journal of Medicinal Chemistry, 2022)
# Out of some 7,900 compounds screened, about 400 (5.1%) showed an effect of 50% or more. This is one part of the list.
# Target: Parkinson's disease protein 7 (PARK7/DJ1) (human, UniProt Q99497)
# Test: primary screen, percent inhibition; read as competition with a fluorescent probe by fluorescence polarization; higher = more effect of the substance
# Details: 100 µM
# How it was run: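 Fluorescence-polarization probe displacement (JYQ-107, 20 nM final, 2 h) after 2 h preincubation of PARK7 (0.2 μM final) with each fragment at 100 μM final. Read-out ex/em 480/520 nm; remaining activity derived from FP signal loss relative to reference controls.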
# Sequence of Parkinson's disease protein 7 (PARK7/DJ1) (Q99497 whole entry, looked up): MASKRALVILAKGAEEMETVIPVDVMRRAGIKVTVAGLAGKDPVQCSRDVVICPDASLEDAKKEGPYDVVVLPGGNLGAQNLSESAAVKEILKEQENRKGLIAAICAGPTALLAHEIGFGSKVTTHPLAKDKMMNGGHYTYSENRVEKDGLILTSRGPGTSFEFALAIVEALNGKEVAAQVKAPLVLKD
row,SMILES,Inhibition % [%]
1,C=CC(=O)NCCc1csc(C)n1,6.55
2,Cc1ccc(B2OC(C)(C)C(C)(C)O2)o1,8.79
3,C=CC(=O)NCc1coc2ccccc12,7.72
4,O=C(CCl)N1CCOC(c2ccc(F)cc2)C1 (stereo not shown),95.3
5,O=C(Oc1ccccc1)N1CC(O)C1,29
6,O=S(=O)(F)Cc1ccc(Cl)nc1,20.4
7,Cc1nc(C#N)c(NCc2cccnc2)o1,4.8
8,Cc1ccc(C=C(C#N)S(C)(=O)=O)s1,6.48
9,C=CC(=O)N1C2CCC1CC(CC(F)F)C2 (stereo not shown),6.6
10,CCN1C(=O)SC(Nc2ccc(C)cc2)C1=O (stereo not shown),7.51
11,COc1ccc(C)cc1S(=O)(=O)n1cccn1,2.32
12,COc1ccc(C)cc1S(=O)(=O)n1cnc(C)c1,5.56
13,C=CC(=O)NC[C@@H]1Cc2ccccc2CO1,4.89
14,CC(Nc1ccc(C#N)nc1)C1CCCOC1 (stereo not shown),-0.898
15,CCN(C(=O)c1cccc(B(O)O)c1)C1CCOC(C)(C)C1 (stereo not shown),8.99
16,O=C(c1ccccc1F)N1CCCCC1C1OCCO1 (stereo not shown),3.89
17,Cl.OB(O)c1cncc(-n2cccn2)c1,6.29
18,O=S(=O)(C=Cc1ccccc1)Nc1ccsc1,4.95
19,Cc1[nH]ncc1CCCNc1ccc(Cl)c(C#N)n1,0.425
20,Cc1ccc(CN(C)C(=O)CCl)cc1,68.9
21,C=CC(=O)N1CCCC(n2cc(C(=O)O)cn2)C1 (stereo not shown),9.81
22,CCn1c(S)nc2cc(C(=O)O)ccc2c1=O,3.7

row,SMILES,Inhibition % [%]
1,CN1CC(=O)OB(c2ccc(O)cc2)OC(=O)C1,6.42
2,COC(=O)c1cc(NC(=O)CCl)cn1C,7.93
3,CCCn1[nH]ccc1=NC(=O)CCl,6.2
4,O=S(=O)(F)CCN1CCOc2ccccc21,17.4
5,O=C(CN1CCSC1=O)Nc1cc(Cl)ccc1Cl,2.2
6,C=CC(=O)N1CCCC(n2ccnc2)C1 (stereo not shown),8.99
7,C=CC(=O)Nc1ccc2nc(C3CC3)oc2c1,11.6
8,O=C(CCl)NC1(c2ccccc2)CCC1,2.96
9,Cc1ccc(NC(=O)CN2CCSC2=O)c(F)c1,2.2
10,N#CC12CC3CC(CC(Cl)(C3)C1)C2,8.03
11,C=CC(=O)N1CCOC[C@@H]1Cc1ccccc1,5.84
12,C=CC(=O)NCCCC(=O)N1CCOc2ccccc21,11
13,Fc1ccc(C2CO2)c(F)c1 (stereo not shown),6.59
14,CCS(=O)(=O)N1CCc2cc(C(=O)CCl)ccc21,11.9
15,C=CC(=O)N1CCn2c(Cl)ccc2C1C (stereo not shown),22.2
16,O=C(CCl)Nc1nnn[nH]1,30.2
17,Cc1cnn(C)c1B1OC(C)(C)C(C)(C)O1,3.95
18,C=CC(=O)NCC1CCC=CO1 (stereo not shown),6.04
19,O=C(O)C1CN(C(=O)C=CC2CCCCC2)CCO1 (stereo not shown),13.3
20,Cc1cccc(NC(=O)CNC(=O)CCl)c1C,7.15
21,C=CC(=O)N1CCCC1c1ccccc1OC (stereo not shown),6.29
22,CCc1cc(CCCCl)on1,8.59

row,SMILES,Inhibition % [%]
1,CCNc1oc(-c2ccc(OC)cc2)nc1C#N,4.05
2,C=CC(=O)N1CCCCC1c1nc(C)cs1 (stereo not shown),8.28
3,CN(C(=O)CCl)C1(C#N)CCCCC1,31.2
4,C=CC(=O)NC1(c2ccccc2)CCOCC1,9.29
5,CC1(C)OB(c2cccc3c2CCO3)OC1(C)C,9.99
6,CN(C)c1ccc(C#N)nc1,6.01
7,Cc1noc(C)c1CC(=O)N1CCCC(C2OCCO2)C1 (stereo not shown),-196
8,CC(C)n1ncc(B2OC(C)(C)C(C)(C)O2)c1F,7.53
9,O=C(CCl)NCc1ccccc1F,22.6
10,O=S(=O)(F)c1ccc(S(=O)(=O)NC2CCCC2O)cc1 (stereo not shown),16.5
11,O=[N+]([O-])c1ccccc1S(=O)(=O)F,99.1
12,C=CC(=O)NCC1C[C@@H]2COC[C@@H]2O1 (mixture of isomers),9.67
13,NCC1CCCCN1C(=O)C=Cc1ccccn1 (stereo not shown),1.06
14,N#CC1(NC(=O)CCl)CCCCCC1,15
15,CC(C)[C@H]1OCC[C@@H]1CNC(=O)c1c[nH]c(C#N)c1,10
16,CNC(=O)C(C#N)=Cc1ccc(F)cc1,2.3
17,CC1(C)OB(c2ccc3ccsc3c2)OC1(C)C,3.19
18,C=CC(=O)N1CCC(CC(=O)N(C)C)CC1,7
19,COc1ccc(F)cc1S(=O)(=O)n1ccc(C)n1,3.57
20,O=C(CN1CCSC1=O)Nc1ccc(F)c(Cl)c1,-0.873
